Numbering of substitutions follows the chain as printed. Like-named read-outs stand apart in the source and are kept apart here.

Consider three molecules from US20230012428A1 (JIANGSU HENGRUI MEDICINE, published 2023).

Experiment [1] has as its target T1, Human CD47-his (CD47-ECD-His) (human, UniProt Q08722 part only, limits assumed).
T1 construct: also called hCD47; free human CD47 protein
The experiment can be described thus: SPR (Biacore T200), binder captured on Protein A chip, antigen in flow. A general note: SPR reads the build-up and loss of mass on a sensor chip optically.

In experiment [2] the target is T2, Cyno CD47-his (cyno, UniProt A0A2K5X523 19-139).
T2 construct: extracellular domain; not shown: His tag
The description is as above.

The target of experiment [3] is T1, Human CD47-his (CD47-ECD-His). The experiment can be described thus: ELISA, CD47-his coated on plate.
T1 sequence (Q08722 19-139 limits assumed): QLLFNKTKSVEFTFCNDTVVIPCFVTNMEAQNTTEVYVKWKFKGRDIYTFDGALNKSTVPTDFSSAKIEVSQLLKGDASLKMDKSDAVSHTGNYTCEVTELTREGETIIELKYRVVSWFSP
The target in experiment [4] is T2, Cyno CD47-his. The experiment can be described thus: ELISA, CD47-his coated on plate. (An ELISA detects its analyte on a solid surface through an enzyme-linked reagent.)
Experiment [5] has as its target T1, Human CD47-his (CD47-ECD-His). The experiment is described as follows: ELISA, CD47-his coated on plate. This is another data set of the same source.
The target in experiment [6] is T2, Cyno CD47-his. The experiment is described as follows: ELISA, CD47-his coated on plate. The source holds these as a separate data set.

B1: TTI-621 (Fc fusion)
chain: not shown
notes: Control protein
In the case of B1, the Kd – broadly, the equilibrium constant for the complex coming apart – in experiment [1] came out at 4150 pM; in the experiment with Cyno CD47-his [2] it was 10400 pM. Moreover, the EC50 (commonly the midpoint of the concentration-response curve) in experiment [3] worked out at 0.0302 µg/mL; in the experiment with Cyno CD47-his [4] it was 0.293 µg/mL.

B2: S58-Fc (Fc fusion)
chain: EEELQMIQPEKLLLVTVGETATLHCTVTSLLPVGPVLWFRGVGPGRELIYMSGRGHFPRVTTVSDLTKRNNMDFSIRISSITPADVGTYYCVKFRKGSPEDVEFKSGPGTEMALGAKPS[human IgG4 Fc with S228P (EU numbers) not given here]
notes: also called SIRPγ protein S58-Fc
As for B2, the EC50 is 0.0255 µg/mL in experiment [5], 0.012 µg/mL with Cyno CD47-his [6], 0.0248 µg/mL in experiment [3] and 0.0154 µg/mL in the experiment with Cyno CD47-his [4]. Also, the Kd was 551 pM in experiment [1] and 974 pM in the experiment with Cyno CD47-his [2].

B3: S37-Fc (Fc fusion)
chain: B2 chain with M72K
For the molecule B3, the EC50 in experiment [5] turned out to be 0.0228 µg/mL; in the experiment with Cyno CD47-his [6], 0.0114 µg/mL. Moreover, the Kd in experiment [1] is 524 pM; in the experiment with Cyno CD47-his [2] it was 893 pM.
